Reference: US20230416363A1 (KADMON, published 2023)

Assays:
hPD-1-Fc [1] = biological target: T1, hPD-1-Fc (human, UniProt Q15116 in part); assay: ELISA competition assay, PD-L1 binding to PD-1
T1 construct: domain: IgV domain; also called human PD-1-Fc; not shown: human IgG1 Fc

hPD-1-Fc [2] = biological target: T1, hPD-1-Fc; assay: ELISA competition assay, PD-L2 binding to PD-1
T1 sequence (Q15116 25-167 limits assumed): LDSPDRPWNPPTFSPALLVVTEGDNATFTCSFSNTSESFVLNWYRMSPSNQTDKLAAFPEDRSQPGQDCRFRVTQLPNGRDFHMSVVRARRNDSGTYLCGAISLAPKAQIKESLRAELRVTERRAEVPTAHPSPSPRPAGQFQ

B1: N65S-1N-38B2/IL-15 (other)
light: DIQMTQSPSSLSASVGDRVTITCRASESISSWLAWYQQKPGKAPKLLIYDASSLESGVPSRFSGSGSGTDFTLTISSLQPEDFATYYCQQGDSFPFTFGQGTKLEIKRTVAAPSVFIFPPSDEQLKSGTASVVCLLNNFYPREAKVQWKVDNALQSGNSQESVTEQDSKDSTYSLSSTLTLSKADYEKHKVYACEVTHQGLSSPVTKSFNRGEC
heavy 1: EVQLLESGGGLVQPGGSLRLSCAASGFTFSSYWMSWVRQAPGKGLEWVSAISGSGGSTYYADSVKGRFTISRDNSKNTLYLQMNSLRAEDTAVYYCASSPLQWVDVWGQGTTVTVSSASTKGPSVFPLAPSSKSTSGGTAALGCLVKDYFPEPVTVSWNSGALTSGVHTFPAVLQSSGLYSLSSVVTVPSSSLGTQTYICNVNHKPSNTKVDKRVEPKSCDKTHTCPPCPAPEAAGGPSVFLFPPKPKDTLMISRTPEVTCVVVDVSHEDPEVKFNWYVDGVEVHNAKTKPREEQYNSTYRVVSVLTVLHQDWLNGKEYKCKVSNKALGAPIEKTISKAKGQPREPQVYVLPPSREEMTKNQVSLLCLVKGFYPSDIAVEWESNGQPENNYLTWPPVLDSDGSFFLYSKLTVDKSRWQQGNVFSCSVMHEALHNHYTQKSLSLSPGK
heavy 2: ITCPPPMSVEHADIWVKSYSLYSRERYICNSGFKRKAGTSSLTECVLNKATNVAHWTTPSLKCIRDPALVHQRPAPPSGGSGGGGSGGGSGGGGSLQ[… about 120 residues with changes …]GGGGSGGGGSGGGGSGGGGSGGGGSGGGGSEVQLLESGGGLVQPGGSLRLSCAASGFTFSSYWMSWVRQAPGKGLEWVSAISGSGGSTYYADSVKGRFTISRDNSKNTLYLQMNSLRAEDTAVYYCASSPLQWVDVWGQGTTVTVSSASTKGPSVFPLAPSSKSTSGGTAALGCLVKDYFPEPVTVSWNSGALTSGVHTFPAVLQSSGLYSLSSVVTVPSSSLGTQTYICNVNHKPSNTKVDKRVEPKSCDKTHTCPPCPAPEAAGGPSVFLFPPKPKDTLMISRTPEVTCVVVDVSHEDPEVKFNWYVDGVEVHNAKTKPREEQYNSTYRVVSVLTVLHQDWLNGKEYKCKVSNKALGAPIEKTISKAKGQPREPQVYVYPPSREEMTKNQVSLTCLVKGFYPSDIAVEWESNGQPENNYKTTPPVLDSDGSFALVSKLTVDKSRWQQGNVFSCSVMHEALHNHYTQKSLSLSPGK
notes: antibody-cytokine fusion; also called 65S_1N_38B2-hSD15; 1N-65S-hSD15-38B2
- IC50 (read off the curve) (hPD-1-Fc [1]): ~3 nM
- IC50 (read off the curve) (hPD-1-Fc [2]): ~3 nM
